Assay results reported in publication PMC4336329 (PLoS ONE, 2015).
The whole screen tested about 310,000 compounds, of which about 14,000 (4.5%) showed an effect of 50% or more. Effects have a minus sign here. This is one part of the list.

Biological target: human ether-à-go-go-related gene (hERG) potassium channel (human, UniProt Q12809)
Experiment: primary screen, population patch clamp on CHO cells stably expressing hERG
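Also: peak tail current of the secondary pulse compared with the same well before compound.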

Chain of human ether-à-go-go-related gene (hERG) potassium channel (Q12809 whole entry, looked up): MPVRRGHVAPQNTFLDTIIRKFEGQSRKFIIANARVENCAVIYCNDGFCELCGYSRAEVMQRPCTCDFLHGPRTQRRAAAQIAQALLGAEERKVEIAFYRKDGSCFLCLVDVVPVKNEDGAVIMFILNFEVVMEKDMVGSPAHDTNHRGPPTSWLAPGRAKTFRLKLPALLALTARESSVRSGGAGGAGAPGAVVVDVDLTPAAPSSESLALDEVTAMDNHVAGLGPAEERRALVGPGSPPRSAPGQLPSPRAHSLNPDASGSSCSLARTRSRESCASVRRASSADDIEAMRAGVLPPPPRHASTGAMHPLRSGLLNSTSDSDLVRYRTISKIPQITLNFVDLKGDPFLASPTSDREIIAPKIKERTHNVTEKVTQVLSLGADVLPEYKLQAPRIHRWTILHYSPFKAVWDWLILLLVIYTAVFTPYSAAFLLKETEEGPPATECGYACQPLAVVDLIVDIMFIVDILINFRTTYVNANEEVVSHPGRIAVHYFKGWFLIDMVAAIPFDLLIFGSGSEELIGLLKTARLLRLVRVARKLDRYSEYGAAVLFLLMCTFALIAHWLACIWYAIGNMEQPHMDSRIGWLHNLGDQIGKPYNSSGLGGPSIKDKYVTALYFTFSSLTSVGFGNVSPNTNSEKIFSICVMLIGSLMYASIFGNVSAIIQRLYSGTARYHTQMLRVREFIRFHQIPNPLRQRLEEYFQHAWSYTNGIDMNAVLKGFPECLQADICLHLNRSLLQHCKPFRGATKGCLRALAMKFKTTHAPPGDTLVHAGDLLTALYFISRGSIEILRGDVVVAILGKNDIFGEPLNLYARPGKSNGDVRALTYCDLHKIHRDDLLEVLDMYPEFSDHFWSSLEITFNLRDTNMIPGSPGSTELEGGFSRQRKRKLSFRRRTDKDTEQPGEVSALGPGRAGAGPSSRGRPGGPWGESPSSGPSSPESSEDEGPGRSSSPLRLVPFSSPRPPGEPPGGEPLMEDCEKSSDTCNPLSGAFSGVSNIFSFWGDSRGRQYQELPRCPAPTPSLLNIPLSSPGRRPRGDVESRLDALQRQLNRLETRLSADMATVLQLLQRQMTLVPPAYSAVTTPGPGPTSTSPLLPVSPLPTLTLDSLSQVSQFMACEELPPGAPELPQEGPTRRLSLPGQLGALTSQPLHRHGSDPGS

Row | Structure (SMILES) | hERG current change (%, negative = inhibition) at 10uM [%]
1 | Cc1cc(C)nc(N2CCCC(C(=O)NCCc3ccccc3F)C2)n1 (stereo not drawn) | 12.7
2 | CCOc1ccc(NC(=O)c2nsc(Cl)c2Cl)cc1 | -1.95
3 | CC1Sc2ccc(S(=O)(=O)N3CCC(C(=O)N4CCN(C)CC4)CC3)cc2NC1=O (stereo not drawn) | 19.2
4 | C=CCN1C(=O)C(O)(CC(=O)c2ccc(OC)cc2OC)c2cc(Br)ccc21 (stereo not drawn) | -3.68
5 | CCC1(C)CC(=O)N(c2ccc(C(=O)O)c(O)c2)C1=O (stereo not drawn) | 6.39
6 | COc1cc(NC(=O)c2cc(OC)c(OC)c(OC)c2)ccc1NC(=O)c1cccs1 | 3.62
7 | O=C(CNC(=O)c1ccccc1)NCCO | 11.9
8 | CC(C)(C)OC(=O)COc1cc(O)c2c(=O)cc(-c3ccccc3)oc2c1 | 13.5
9 | COc1ccc(NC(=O)CSc2ccc(-c3cccnc3)nn2)cc1 | -2.73
10 | O=C(Nc1ccc(Oc2ccccc2)cc1)N[C@@H](Cc1ccccc1)C(=O)O | 25.9
11 | CCc1ccc(/C=C2\SC(=S)N(CCC(=O)Nc3cc(C)on3)C2=O)cc1 | 15.1
12 | Cc1cc([N+](=O)[O-])c(NCCCCCCO)c([N+](=O)[O-])c1 | -38.1
13 | O=C(NCCc1ccc(Cl)cc1)C1CC(=O)N(C2CCCCC2)C1 (stereo not drawn) | -19.6
14 | O=C(/C=C/c1ccc(F)cc1)N1CCc2ccccc2C1 | -11.2
15 | O=C(NC1CCCC1)C(c1ccc(N2CCOCC2)cc1)N(Cc1ccco1)C(=O)c1ccco1 (stereo not drawn) | -8.59
16 | CC(C)(C)Nc1c([N+](=O)[O-])c(=O)sc2ccccc12 | 5.21
17 | CSc1ccc(S(=O)(=O)Nc2ccc3c(c2)NC(=O)CC3)cc1 | -8.76
18 | C/C(=N\NC(=O)c1sccc1-n1cccc1)c1cccs1 | 4.49
19 | O=C(Nc1cccc(C(F)(F)F)c1)c1cncs1 | 20
20 | CCOc1ccccc1N(C(=O)c1snc(C(N)=O)c1N)C(CC)C(=O)NC1CCCC1 (stereo not drawn) | 16.7
21 | O=C(NCCCN1CCN(CCCNC(=O)c2ccc3c(c2)OCO3)CC1)c1ccc2c(c1)OCO2 | -36.8
22 | O=C(Cc1ccccc1)NCC(=O)OCC(=O)c1ccc([N+](=O)[O-])cc1 | 8.93
23 | O=C(CSc1nnc(NC(=O)CN2CCOCC2)s1)Nc1ccccc1 | 8.56
24 | COc1ccccc1N(CC(=O)NCCSc1ccccn1)S(=O)(=O)c1ccccc1 | 2.58
